# Measured values taken from publication PMC6940534 (Journal of thrombosis and haemostasis : JTH, 2019).
# Target: Wild type GPIbα (amino acids H1 - E285) (UniProt P07359 17-301)
# Assay: SPR
# Chain of UniProt P07359 (P07359 17-301): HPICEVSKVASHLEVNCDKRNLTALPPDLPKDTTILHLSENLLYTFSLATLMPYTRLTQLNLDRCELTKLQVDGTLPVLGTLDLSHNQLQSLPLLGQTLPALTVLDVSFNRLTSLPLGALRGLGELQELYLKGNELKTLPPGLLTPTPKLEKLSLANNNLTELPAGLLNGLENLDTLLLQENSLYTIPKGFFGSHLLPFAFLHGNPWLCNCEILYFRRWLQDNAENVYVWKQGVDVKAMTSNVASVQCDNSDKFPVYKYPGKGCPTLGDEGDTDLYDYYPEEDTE
binder,measurement,value
wild-type nonglycosylated A1 domain of VWF ([…]) (domain or fragment) not shown,Kd,3.9 ± 0.1 µM
